Source: the supplement of paper PMC8728848
Some of the results follow.

Columns and labels:
Assay in all cases: glycan array binding signal (z-score within array); higher = stronger binding
Settings in all cases: glycan notation: IUPAC condensed, linker removed
Fuc(a1-3)GlcNAc = biological target: Fuc(a1-3)GlcNAc
In short: (§1)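 Columns mapping to the same glycan were averaged after glycan names were converted to IUPAC-condensed notation. The data come from 3228 arrays in the Consortium for Functional Glycomics database, limited to those with an available protein sequence. Binding is reported as a within-array Z-score averaged across arrays of one protein sequence and across linkers.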

[1] = biological target: Fuc(a1-3)[Gal(b1-4)]Glc6S
In short: as §1

[2] = biological target: Fuc(a1-3)[Gal(b1-4)]GlcNAc
In short: as §1

[3] = biological target: Fuc(a1-3)[Gal(b1-4)]GlcNAc(b1-2)Man
In short: as §1

[4] = biological target: Fuc(a1-3)[Gal(b1-4)]GlcNAc(b1-2)Man(a1-3)[Fuc(a1-3)[Gal(b1-4)]GlcNAc(b1-2)Man(a1-6)]Man(b1-4)GlcNAc(b1-4)GlcNAc
In short: as §1

[5] = biological target: Fuc(a1-3)[Gal(b1-4)]GlcNAc(b1-2)Man(a1-3)[Fuc(a1-3)[Gal(b1-4)]GlcNAc(b1-2)Man(a1-6)]Man(b1-4)GlcNAc(b1-4)[Fuc(a1-6)]GlcNAc
In short: as §1

[6] = biological target: Fuc(a1-3)[Gal(b1-4)]GlcNAc(b1-3)Gal(b1-3)[Fuc(a1-4)]GlcNAc
In short: as §1

[7] = biological target: Fuc(a1-3)[Gal(b1-4)]GlcNAc(b1-3)Gal(b1-4)[Fuc(a1-3)]GlcNAc
In short: as §1

[8] = biological target: Fuc(a1-3)[Gal(b1-4)]GlcNAc(b1-3)Gal(b1-4)[Fuc(a1-3)]GlcNAc(b1-3)Gal(b1-4)[Fuc(a1-3)]GlcNAc
In short: as §1

[9] = biological target: Fuc(a1-3)[Gal(b1-4)]GlcNAc(b1-3)GalNAc
In short: as §1

[10] = biological target: Fuc(a1-3)[Gal(b1-4)]GlcNAc(b1-6)GalNAc
In short: as §1

[11] = biological target: Fuc(a1-3)[Gal(b1-4)]GlcNAc(b1-6)[Gal(b1-3)GlcNAc(b1-3)]Gal(b1-4)Glc
In short: as §1

[12] = biological target: Fuc(a1-3)[Gal(b1-4)]GlcNAc6S
In short: as §1

[13] = biological target: Fuc(a1-3)[Gal3S(b1-4)]Glc
In short: as §1

[14] = biological target: Fuc(a1-3)[Gal3S(b1-4)]GlcNAc
In short: as §1

[15] = biological target: Fuc(a1-3)[Gal3S(b1-4)]GlcNAc6S
In short: as §1

[16] = biological target: Fuc(a1-3)[GalNAc(b1-4)]GlcNAc
In short: as §1

[17] = biological target: Fuc(a1-3)[GalNAc(b1-4)]GlcNAc6S
In short: as §1

Fuc(a1-4)GlcNAc = biological target: Fuc(a1-4)GlcNAc
In short: as §1

Fuc(b1-3)GlcNAc = biological target: Fuc(b1-3)GlcNAc
In short: as §1

Gal(a1-2)Gal = biological target: Gal(a1-2)Gal
In short: as §1

Gal(a1-3)Gal = biological target: Gal(a1-3)Gal
In short: as §1

Gal(a1-3)Gal(b1-3)GlcNAc = biological target: Gal(a1-3)Gal(b1-3)GlcNAc
In short: as §1

[18] = biological target: Gal(a1-3)Gal(b1-3)GlcNAc(b1-2)Man
In short: as §1

[19] = biological target: Gal(a1-3)Gal(b1-3)GlcNAc(b1-2)Man(a1-3)[Gal(a1-3)Gal(b1-3)GlcNAc(b1-2)Man(a1-6)]Man(b1-4)GlcNAc(b1-4)GlcNAc
In short: as §1

[20] = biological target: Gal(a1-3)Gal(b1-3)GlcNAc(b1-3)GalNAc
In short: as §1

[21] = biological target: Gal(a1-3)Gal(b1-3)GlcNAc(b1-6)GalNAc
In short: as §1

[22] = biological target: Gal(a1-3)Gal(b1-3)[Fuc(a1-4)]GlcNAc(b1-2)Man(a1-3)[Gal(a1-3)Gal(b1-3)[Fuc(a1-4)]GlcNAc(b1-2)Man(a1-6)]Man(b1-4)GlcNAc(b1-4)GlcNAc
In short: as §1

Gal(a1-3)Gal(b1-4)Glc = biological target: Gal(a1-3)Gal(b1-4)Glc
In short: as §1

Gal(a1-3)Gal(b1-4)GlcNAc = biological target: Gal(a1-3)Gal(b1-4)GlcNAc
In short: as §1

B1: FimD (Bordetella pertussis) (protein)
chain: MPARVISFCGAALAVWAGLAVQPAMAVDPPVDCGRALGLHFWSSASLISDQTPDGTLIGKPVVGRSLLSKSCKVPDDIKEDLSDNHDGEPVDIVLELGSNYKIRPQSYGHPGIVVDLPFGSTEETGIAIYIDFGSSPMQKVGERQWLYPQKGEVLFDVLTINGDNAEVRYQAIKVGPLKRPRKLVLSQFPNLFTYKWVFMRGTSQERVLAQGTIDTDVATSTIDLKTCRYTSQTVSLPIIQRSALTGVGTTLGMTDFQMPFWCYGWPKVSVYMSATKTQTGVDGVALPATGQAAGMASGVGVQLINGKTQQPVKLGLQGKIALPEAQQTESATFSLPMKAQYYQTSTSTSAGKLSVTYAVTLNYD
- glycan array binding signal (z-score) (Fuc(a1-3)GlcNAc): 0.023
- glycan array binding signal (z-score) [1]: -0.323
- glycan array binding signal (z-score) [2]: -0.271
- glycan array binding signal (z-score) [3]: -0.452
- glycan array binding signal (z-score) [4]: 0.59
- glycan array binding signal (z-score) [5]: 0.875
- glycan array binding signal (z-score) [6]: -0.439
- glycan array binding signal (z-score) [7]: -0.006
- glycan array binding signal (z-score) [8]: -0.363
- glycan array binding signal (z-score) [9]: 0.367
- glycan array binding signal (z-score) [10]: 0.306
- glycan array binding signal (z-score) [11]: -0.238
- glycan array binding signal (z-score) [12]: -0.043
- glycan array binding signal (z-score) [13]: -0.369
- glycan array binding signal (z-score) [14]: -0.014
- glycan array binding signal (z-score) [15]: -0.062
- glycan array binding signal (z-score) [16]: 0.051
- glycan array binding signal (z-score) [17]: -0.127
- glycan array binding signal (z-score) (Fuc(a1-4)GlcNAc): 1.73
- glycan array binding signal (z-score) (Fuc(b1-3)GlcNAc): -0.068
- glycan array binding signal (z-score) (Gal(a1-2)Gal): -0.465
- glycan array binding signal (z-score) (Gal(a1-3)Gal): -0.055
- glycan array binding signal (z-score) (Gal(a1-3)Gal(b1-3)GlcNAc): -0.352
- glycan array binding signal (z-score) [18]: -0.508
- glycan array binding signal (z-score) [19]: 0.616
- glycan array binding signal (z-score) [20]: 0.012
- glycan array binding signal (z-score) [21]: -0.163
- glycan array binding signal (z-score) [22]: 0.135
- glycan array binding signal (z-score) (Gal(a1-3)Gal(b1-4)Glc): -0.29
- glycan array binding signal (z-score) (Gal(a1-3)Gal(b1-4)GlcNAc): -0.093
